Consider 9 molecules from publication PMC9911399, “Two distinct binding modes provide the RNA-binding protein RbFox with extraordinary sequence specificity”.

Changes are numbered by the printed parent chain; changes in the protein carry UniProt numbers. Some of the results follow.

The labels stand for the following.
T1: RBFOX1 RRM RbFoxmut (Fox-RRM*) (Homo sapiens, UniProt Q9NWB1 109-208, R118D;E147R;N151S;E152T)
T1 sequence: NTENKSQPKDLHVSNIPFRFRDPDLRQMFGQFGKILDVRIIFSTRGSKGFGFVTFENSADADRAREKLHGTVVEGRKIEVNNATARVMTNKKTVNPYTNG

B1: CGGUACG (DNA:RNA)
RNA: GGGAGACCGGAAUUCAGAUUGUCCCGGUACGUUAAAUCCCGUCGUAGCCACCA
DNA 1: CAATCTGAATTCCGGTCTCCC
DNA 2: TGGTGGCTACGACGGGATT
B2: GGGACUC (DNA:RNA)
RNA: B1 RNA with C25G, U28A, A29C, C30U, G31C
DNA 1: CAATCTGAATTCCGGTCTCCC
DNA 2: TGGTGGCTACGACGGGATT
B3: GACCUCG (DNA:RNA)
RNA: B1 RNA with C25G, G26A, G27C, U28C, A29U
DNA 1: CAATCTGAATTCCGGTCTCCC
DNA 2: TGGTGGCTACGACGGGATT
B4: UUCCGCA (DNA:RNA)
RNA: B1 RNA with C25U, G26U, G27C, U28C, A29G, G31A
DNA 1: CAATCTGAATTCCGGTCTCCC
DNA 2: TGGTGGCTACGACGGGATT
B5: GGUUGCG (DNA:RNA)
RNA: B1 RNA with C25G, G27U, A29G
DNA 1: CAATCTGAATTCCGGTCTCCC
DNA 2: TGGTGGCTACGACGGGATT
B6: AUUUUGC (DNA:RNA)
RNA: B1 RNA with C25A, G26U, G27U, A29U, C30G, G31C
DNA 1: CAATCTGAATTCCGGTCTCCC
DNA 2: TGGTGGCTACGACGGGATT
B7: UGACUUC (DNA:RNA)
RNA: B1 RNA with C25U, G27A, U28C, A29U, C30U, G31C
DNA 1: CAATCTGAATTCCGGTCTCCC
DNA 2: TGGTGGCTACGACGGGATT
B8: UACAGAC (DNA:RNA)
RNA: GGGAGACCGGAAUUCAGAUUGUCCUACAGACUUAAAUCCCGUCGUAGCCACCA
DNA 1: CAATCTGAATTCCGGTCTCCC
DNA 2: TGGTGGCTACGACGGGATT
B9: GUAUGAC (DNA:RNA)
RNA: B8 RNA with U25G, A26U, C27A, A28U
DNA 1: CAATCTGAATTCCGGTCTCCC
DNA 2: TGGTGGCTACGACGGGATT

For the assay, the target named is T1, RBFOX1 RRM RbFoxmut (Fox-RRM*). As to the kind of experiment: EMSA; HiTS-Eq, 1 nM pool, 10 min; buffer printed only for the single-RNA assays: 10 mM Tris pH 7.5, 150 mM NaCl, 3.4 mM EDTA, 0.001% NP-40, 30 C. To be noted: tags: His6 N-terminal (pET28a); label: 5' 32P. Summed up:
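These values rest on relative association constants, computed from read-count changes of each RNA species versus the control reaction and normalised to the cognate motif. Reads came from free RNA recovered by 8% native PAGE after purified RbFox RRM (wild type or mutant) at increasing concentrations was equilibrated for 10 min in 50 µL with 1 nM of a 5′-radiolabelled pool with 7 randomized nucleotides and DNA-annealed flanks.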
(In general: In EMSA bound probe runs differently from free probe, usually more slowly.)
Consider B1, for which the binding signal is 0.24 KA relative to UGCAUGU.

Consider B2, for which the binding signal was 0.111 KA relative to UGCAUGU.

B3: the binding signal was 0.101 KA relative to UGCAUGU.

Regarding B4, the binding signal is 0.1 KA relative to UGCAUGU.

For the molecule B5, the binding signal is 0.178 KA relative to UGCAUGU.

For B6, the binding signal is 0.119 KA relative to UGCAUGU.

Consider B7, for which the binding signal was 0.0822 KA relative to UGCAUGU.

B8: the binding signal was 0.0549 KA relative to UGCAUGU.

With B9, the binding signal is 0.219 KA relative to UGCAUGU.
